Measurements from ChEMBL document CHEMBL4888484, “Replenishing the malaria drug discovery pipeline: Screening and hit evaluation of the MMV Hit Generation Library 1 (HGL1) against asexual blood stage Plasmodium falciparum ,using a nano luciferase reporter read-out” (2022).
About 540 (0.36%) of roughly 150,000 compounds showed an effect of 50% or more. Some of the results follow.

tested on: Plasmodium falciparum; assay: Primary screen in NF54 nanoGlo assay, in single point, at 2uM, 72h; a lower Z score goes with more inhibition; assay type: functional, Erythrocyte; conditions: timepoint 72 hour

| Structure (SMILES) | % Inhibition | Z score |
| --- | --- | --- |
| O=C(O)[C@H]1CCCN1C(=O)c1ccc(-c2ccccc2F)o1 | -1% | 0.27 |
| CN(Cc1cnccn1)S(=O)(=O)c1cccc2c1OC(C)(C)C2 | -11% | 1.24 |
| Cn1nc(-c2cccnc2)cc1CNS(C)(=O)=O | 16% | -2.02 |
| Cn1c(=O)sc2cc(CNc3cccc(OCC(F)F)n3)ccc21 | -1% | 0.07 |
| COC[C@]1(O)CCOC2(CCN(Cc3ccc(C)cn3)CC2)C1 | -11% | 1.59 |
| Cc1ccc(OC2(C(=O)O)CCN(c3nccc4occc34)CC2)cn1 | 0% | 0.01 |
| O=C(CCc1nnc2ccc(N3CCOCC3)nn12)N1CCCCC1 | -19% | 1.82 |
| Cc1cc(C(=O)N2CCC[C@H]2c2ccc3c(c2)OCCCO3)c(C)n1CC(F)(F)F | 0% | 0.08 |
| C[C@H](NC(=O)C(F)(F)c1ccccn1)c1cnn(C)c1 | 8% | -1.19 |
| CC1CN(C(=O)Cc2ccc(C(=O)O)cc2)C(c2ccccc2)CO1 (stereo unspecified) | -19% | 2 |
| Cc1cc(NC(=O)CCC(F)(F)F)nc(=O)[nH]1 | -3% | 0.36 |
| Cc1nn(Cc2nc(-c3ccc(C(C)C)cc3)no2)c(=O)c(C#N)c1C | -11% | 1.81 |
| Cc1cccc2nc(C(=O)N(C)CC3(CO)CCOCC3)c(F)n12 | -5% | 0.88 |
| COC(=O)CN1CCN(C(=O)c2ccc3ccccc3n2)CC1=O | -5% | 0.94 |
| COc1ccc(-n2nc3nc[nH]c(=O)c3n2)cc1 | 3% | -0.46 |
| CC(C)(C)c1nnc(C(=O)NC[C@@]2(c3ccccc3)CCCO2)o1 | 3% | -0.53 |
| Cc1csc(=O)n1CC(=O)N(C)CC1CCCC1 | 26% | -2.92 |
| CC(=O)N1CCC(CC(=O)N2C[C@@H](Oc3ccccc3)C[C@H]2C(=O)N2CCOCC2)CC1 | -8% | 1.05 |
| COCc1cc(N2CCc3ncnc(N(C)C)c3C2)n2ncnc2n1 | -5% | 0.51 |
| CCc1ncnc(N2C[C@H](O)C(C)(C)C2)c1F | -16% | 1.48 |
| O=C(NCc1nccs1)c1ccc(-c2ccco2)[nH]c1=O | -2% | 0.15 |
| Cc1cc(S(=O)(=O)N2CCc3cc4ccccc4nc32)ccc1F | -2% | 0.23 |

| Structure (SMILES) | % Inhibition | Z score |
| --- | --- | --- |
| Cc1cc(Oc2ncccc2C#N)ccc1NC(=O)c1ccc2c(c1)OCO2 | 28% | -3.76 |
| O=C(Cn1nnc2ccccc21)N(Cc1nc(-c2ccccc2)cs1)C1(C(=O)Nc2ccc3c(c2)OCO3)CCCC1 | -7% | 0.77 |
| COc1cc(-c2ccc(CO)cc2CO)c(Cl)cn1 | -5% | 0.97 |
| Cn1nc(C(=O)N[C@H]2CCn3nccc3C2)ccc1=O | -11% | 1.76 |
| CCc1ccc(F)cc1C(=O)N1CCN(CC(=O)Nc2nncs2)CC1 | -4% | 0.72 |
| O=C(Nc1cccc2ccccc12)c1ccc2c(c1)C(=O)N(c1cccc3ccccc13)C2=O | -1% | 0.17 |
| CCOCCO/C(=N/C(=O)c1ccccc1F)NC[C@H]1CCCO1 | 3% | -0.32 |
| O=C1CN(Cc2cc(C#CCO)cs2)CCCN1 | -11% | 1.59 |
| C[C@H](NC(=O)c1cccc(Cl)c1Cl)C(=O)NC1(C(N)=O)CCCCC1 | 5% | -0.58 |
| CCCc1nc(C(=O)N2C[C@H](NC(C)=O)[C@@H](c3ccc(C)cc3)C2)cs1 | 1% | -0.2 |
| CC(C)(C)C1CCC2(CC1)NCCN=C2NCc1ccc(Cl)cc1 (stereo unspecified) | -3% | 0.47 |
| O=S(=O)(Cc1cc(Cl)cc(Cl)c1)NCCC(F)(F)F | -10% | 1.73 |
| Cc1oncc1C(=O)N(Cc1cccn1C)C1CC1 | 0% | -0.06 |
| Cc1cc(N2CCCNC(=O)C2)nc(N(C)C)n1 | -3% | 0.57 |
| O=C(Nc1cccc(C2CC2)n1)[C@H]1CCOC2(CCC2)C1 | -21% | 2.09 |
| COc1ccc2c(c1)CCN(S(=O)(=O)CCNC(=O)c1snnc1C)C2 | -8% | 0.89 |
| CCC(NCC(O)c1ccco1)c1ccccc1F (stereo unspecified) | -11% | 1.22 |
| CC(=O)N(C)c1ccc(/C=C2\C=Cc3ccccc32)cc1 | -7% | 0.86 |
| Cc1ccc(C(=O)Nc2ccc(N3CCCN(C(=O)C4CCCC4)CC3)c(C(=O)N3CCCCC3)c2)cc1 | -4% | 0.58 |
| O=C(O)c1ccccc1[C@H]1CCN(c2ncccn2)C1 | -3% | 0.6 |
| O=C(C1CC1)[C@@H]1CN(C(=O)c2ccnn2C2CCCC2)CCO1 | -10% | 1.26 |
